# Measured values reported in PubChem BioAssay (NCATS).
# Inconclusive results, whose numbers are uncertain, are shown with a selection of clear calls. For some of these results: A potency beside an inconclusive call is a rough fit, not a confirmed value. Activity calls are given as the source filed them. Calls come from the whole dose curve; as a rule, active = well fitted curve in the direction sought with a large enough effect; inconclusive = small, poorly fitted or top-dose-only effect, or another doubt; inactive = no such curve, though single readings can be large; an effect the other way counts as inactive or inconclusive.
# What was measured:
# [1] = qHTS of pediatric cancer cell lines to identify multiple opportunities for drug repurposing: Primary screen for OHS-50 cells (AID 1347103); note: nearly all actives have a fitted effect of over 40% in size;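 for activity change, negative = cytotoxic: plate controls were DMSO neutral control for no effect and bortezomib positive control for full effect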
# Method in brief: (§1)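 Cells (500-1,000/well) rested 5 h, then received compounds for 48 h; metabolically active cells were measured by CellTiter-Glo luminescence. Final concentrations spanned up to 46 µM (MIPE, 11-point) or 0.59 nM-46 µM (NPC, 8-point) in primary screens, 11-point in follow-ups.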
# [2] = qHTS of pediatric cancer cell lines to identify multiple opportunities for drug repurposing: Primary screen for RD cells (AID 1347104); note: nearly all actives have a fitted effect of over 55% in size;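 for activity change, negative = cytotoxic: plate controls were DMSO for no effect and bortezomib for full effect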
# Method in brief: (§2)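 500-1,000 cells/well; 5 h pre-incubation 37 °C/5% CO2; compound pinned; 48 h; CellTiter-Glo, 15 min RT; luminescence. MIPE 11-pt from 0.78 nM, NPC 8-pt from 0.59 nM final. Bortezomib 2.3 µM final as positive control.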
# [3] = qHTS of pediatric cancer cell lines to identify multiple opportunities for drug repurposing: Primary screen for Rh30 cells (AID 1347107); note: nearly all actives have a fitted effect of over 75% in size; for activity change, negative = cytotoxic: % is set by controls: 0 for no effect and ±100 for the full control effect
# Method in brief: as §1
# [4] = qHTS of pediatric cancer cell lines to identify multiple opportunities for drug repurposing: Primary screen for Rh41 cells (AID 1347108); note: nearly all actives have a fitted effect of over 70% in size;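 for activity change, negative = cytotoxic: luminescence drop marks cytotoxic hits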
# Method in brief: as §2
# [5] = qHTS of pediatric cancer cell lines to identify multiple opportunities for drug repurposing: Primary screen for MG 63 (6-TG R) cells (AID 1347105); settings: MG 63 (6-TG R) viability, CellTiter-Glo, 48 h; activity change, negative = cytotoxic: at 46 µM (top of the series) unless noted; note: nearly all actives have a fitted effect of over 50% in size; for activity change, negative = cytotoxic: % is set by controls: 0 for no effect and ±100 for the full control effect
# Method in brief: as §2
# [6] = qHTS of pediatric cancer cell lines to identify multiple opportunities for drug repurposing: Primary screen for control Hh wild type fibroblast cells (AID 1347106); note: nearly all actives have a fitted effect of over 55% in size;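 for activity change, negative = cytotoxic: % is set by controls: 0 for no effect and ±100 for the full control effect; a drop in luminescence marks cytotoxicity and a rise apparent proliferation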
# Method in brief: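 Cells (500-1,000/well) in growth media were settled 5 h at 37 degrees C, then given compounds for 48 h. Viability was read as CellTiter-Glo luminescence. Primary runs used MIPE at 11 points (0.78 nM-46 µM) and NPC at 8 points (0.59 nM-46 µM); follow-ups used 11 points.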
# [7] = qHTS of pediatric cancer cell lines to identify multiple opportunities for drug repurposing: Confirmatory screen for NB1643 cells (AID 1347109); note: nearly all actives have a fitted effect of over 45% in size
# Method in brief: as §1
# [8] = qHTS of pediatric cancer cell lines to identify multiple opportunities for drug repurposing: Confirmatory screen for A673 cells (AID 1347110);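 note: cells exposed to compound for 48 h before the viability read; nearly all actives have a fitted effect of over 65% in size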
# Method in brief: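 Concentration-response curves came straight from titrations: 11 points (0.78 nM to 46 µM) for MIPE and several concentrations (0.59 nM to 46 µM) for NPC in primary, 11 points in follow-up. Readout: ATP luminescence at 48 h.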
# Potency is the fitted concentration of half-maximal effect; tags give direction and shape of the fitted curve.
smiles,measurement,setting,value
COc1ccc2cc(CCC(C)=O)ccc2c1,Potency,[1],"inconclusive: 6.92 µM [cytotoxic, partial curve]"
same,Potency,[2],inactive
same,Potency,[3],inactive
O=C1CCCC2=C1C(c1[nH]ncc1Cl)N=C(Nc1nc3ccccc3o1)N2 (centres undefined),Potency,[1],"inconclusive: 21.7 µM [cytotoxic, partial curve, poor fit]"
same,Potency,[2],"inconclusive: 5.9 µM [cytotoxic, partial curve, poor fit]"
same,Potency,[4],"inconclusive: 1.87 µM [cytotoxic, partial curve]"
O=C1CN(/N=C/c2ccc([N+](=O)[O-])o2)C(=O)N1,Potency,[1],inactive
same,Potency,[2],inactive
same,Potency,[5],"inconclusive: 33.5 µM [cytotoxic, single point]"
same,Potency,[4],"inconclusive: 26.6 µM [cytotoxic, single point]"
Cc1cccc(C#Cc2ccccc2)n1,Potency,[1],"inconclusive: 24.3 µM [cytotoxic, partial curve]"
same,Potency,[2],"inconclusive: 16.6 µM [cytotoxic, partial curve, poor fit]"
same,Potency,[5],"inconclusive: 3.72 µM [cytotoxic, partial curve]"
same,Potency,[3],"inconclusive: 20.9 µM [cytotoxic, partial curve]"
same,Potency,[4],"inconclusive: 18.7 µM [cytotoxic, partial curve]"
O=C(Nc1ccccc1)Nc1ccc(-c2ccc(C(=O)[C@H]3CCC[C@H]3C(=O)O)cc2)cc1,Potency,[1],"inconclusive: 15.3 µM [cytotoxic, partial curve, poor fit]"
same,Potency,[2],"inconclusive: 18.7 µM [cytotoxic, single point]"
same,Potency,[5],"inconclusive: 37.2 µM [cytotoxic, single point]"
same,Potency,[3],"inconclusive: 20.9 µM [cytotoxic, single point]"
same,Potency,[4],"inconclusive: 11.8 µM [cytotoxic, partial curve]"
Cc1ccccc1C(C(=O)NC1CCCCC1)N(C(=O)Cn1ccnc1C)c1cccc(F)c1 (centres undefined),Potency,[1],"inconclusive: 7.69 µM [cytotoxic, partial curve]"
same,Potency,[2],"inconclusive: 20.9 µM [cytotoxic, partial curve, poor fit]"
same,Potency,[5],inactive
same,Potency,[3],inactive
same,Potency,[4],"inconclusive: 14.8 µM [cytotoxic, partial curve]"
COc1cc2c(cc1OC)CN(CCc1ccc(NC(=O)c3cc(OC)c(OC)cc3NC(=O)c3cnc4ccccc4c3)cc1)CC2,Potency,[1],"inconclusive: 17.2 µM [cytotoxic, partial curve, poor fit]"
same,Potency,[2],"inconclusive: 23.5 µM [cytotoxic, partial curve, poor fit]"
same,Potency,[4],"inconclusive: 4.69 µM [cytotoxic, partial curve]"
CNC[C@H](O)c1ccc(O)c(O)c1,Potency,[1],"inconclusive: 0.001 µM [cytotoxic, full curve]"
same,"activity change, negative = cytotoxic",[5],inconclusive: -32.8% [cytotoxic] [at 92.7 µM]
COC(=O)Nc1ccc(-c2nc(N3CCOCC3)c3cnn(C4CCN(C(=O)OC)CC4)c3n2)cc1,Potency,[1],active: 0.432 µM
same,Potency,[5],active: 0.469 µM
same,Potency,[6],active: 0.0209 µM
same,Potency,[3],inactive
same,Potency,[7],"inconclusive: 10.4 µM [cytotoxic, partial curve]"
CC(C)Cc1ccc(C(C)C(=O)O)cc1 (centres undefined),Potency,[1],inactive
same,Potency,[2],inactive
same,Potency,[8],active: 6.57 µM
O=C(CCN1CCN2CCCC2C1)N1c2ccccc2Sc2ccc(Cl)cc21 (centres undefined),Potency,[1],"inconclusive: 10.7 µM [cytotoxic, partial curve, poor fit]"
same,Potency,[5],"inconclusive: 0.0023 µM [cytotoxic, full curve, poor fit]"
CC(=O)Oc1cccc2c1C(=O)c1c(OC(C)=O)cc(C(=O)O)cc1C2=O,Potency,[1],"inconclusive: 38.9 µM [cytotoxic, single point]"
same,Potency,[5],"inconclusive: 33.5 µM [cytotoxic, single point]"
same,Potency,[6],inactive
same,Potency,[4],inactive
CC(=O)N(C)C1(c2ccccc2)CCN(CCC[C@]2(c3ccc(Cl)c(Cl)c3)CCCN(C(=O)c3ccccc3)C2)CC1,Potency,[1],active: 24.3 µM
same,Potency,[5],"inconclusive: 37.2 µM [cytotoxic, single point]"
same,Potency,[6],"inconclusive: 33.2 µM [cytotoxic, single point]"
same,Potency,[3],"inconclusive: 20.9 µM [cytotoxic, partial curve]"
same,Potency,[4],active: 18.7 µM
